Source: publication PMC4336329 (PLoS ONE, 2015)
The whole screen tested about 310,000 compounds, of which about 14,000 (4.5%) showed an effect of 50% or more. The effect is printed as a negative number. The list shows a part of the results.

Molecular target: human ether-à-go-go-related gene (hERG) potassium channel (human, UniProt Q12809)
Experiment: primary screen, population patch clamp on CHO cells stably expressing hERG
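Also: peak tail current of the secondary pulse compared with the same well before compound.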

human ether-à-go-go-related gene (hERG) potassium channel, sequence (Q12809 whole entry, looked up): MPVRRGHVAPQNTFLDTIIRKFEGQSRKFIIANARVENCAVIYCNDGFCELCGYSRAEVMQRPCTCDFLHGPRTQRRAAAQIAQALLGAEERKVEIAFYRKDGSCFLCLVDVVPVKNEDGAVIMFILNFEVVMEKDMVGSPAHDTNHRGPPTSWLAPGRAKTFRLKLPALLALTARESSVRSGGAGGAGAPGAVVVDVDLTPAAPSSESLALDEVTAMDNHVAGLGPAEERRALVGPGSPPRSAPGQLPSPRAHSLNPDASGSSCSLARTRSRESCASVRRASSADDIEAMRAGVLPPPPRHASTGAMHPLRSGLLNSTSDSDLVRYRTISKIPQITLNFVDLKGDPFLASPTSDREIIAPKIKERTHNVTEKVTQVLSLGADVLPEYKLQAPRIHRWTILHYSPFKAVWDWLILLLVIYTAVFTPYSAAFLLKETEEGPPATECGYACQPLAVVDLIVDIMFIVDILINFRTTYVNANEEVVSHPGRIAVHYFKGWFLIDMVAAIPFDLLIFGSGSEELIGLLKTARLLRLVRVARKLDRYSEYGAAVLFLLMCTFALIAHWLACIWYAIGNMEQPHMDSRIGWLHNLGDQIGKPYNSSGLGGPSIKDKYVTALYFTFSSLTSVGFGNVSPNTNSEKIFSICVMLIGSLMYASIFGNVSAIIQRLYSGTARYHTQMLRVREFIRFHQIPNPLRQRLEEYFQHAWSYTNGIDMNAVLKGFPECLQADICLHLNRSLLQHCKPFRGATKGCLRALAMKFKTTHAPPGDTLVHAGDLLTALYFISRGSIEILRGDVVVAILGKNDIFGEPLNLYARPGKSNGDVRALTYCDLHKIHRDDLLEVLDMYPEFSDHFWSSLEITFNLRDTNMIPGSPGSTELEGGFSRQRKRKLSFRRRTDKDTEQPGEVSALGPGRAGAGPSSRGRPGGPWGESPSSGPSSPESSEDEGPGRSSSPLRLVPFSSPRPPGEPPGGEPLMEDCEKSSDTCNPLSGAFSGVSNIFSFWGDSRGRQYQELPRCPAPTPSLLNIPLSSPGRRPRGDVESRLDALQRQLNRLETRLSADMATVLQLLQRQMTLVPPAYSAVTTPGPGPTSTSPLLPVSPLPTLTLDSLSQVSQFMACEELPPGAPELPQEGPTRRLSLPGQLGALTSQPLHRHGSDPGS

Compared with CCN(CC)S(=O)(=O)c1ccc2[nH]c(=O)cc(C(=O)NCC3CCCO3)c2c1 (stereo not shown), CCc1nnc(NC(=O)c2cc(S(=O)(=O)N3CCCCC3)ccc2C)s1 is higher in “hERG current change (%, negative = inhibition) at 10uM” value: -10.3% for the first, 0.426% for the second.

Compared with Cc1cc(C(=O)OCC(=O)c2cccs2)c2ccccc2n1, Cc1cccc(N2CCc3c2nc2ccccc2c3N)c1.O=C(O)C(=O)O is lower in “hERG current change (%, negative = inhibition) at 10uM” value: 24.1% for the first, -53.7% for the second.

Compared with Cn1cccc1CC(=O)NNC(=O)Nc1ccc(F)cc1, Cc1ccc(NC(=O)Cn2nnc3ccccc3c2=O)cc1 is higher in “hERG current change (%, negative = inhibition) at 10uM” value: -0.548% for the first, 9.98% for the second.

Compared with Cc1nn(C)c(C)c1NC(=S)Nc1ccc(S(=O)(=O)Nc2ncccn2)cc1, Cc1nn(CC(=O)Nc2cccc(S(N)(=O)=O)c2)c(C)c1[N+](=O)[O-] is higher in “hERG current change (%, negative = inhibition) at 10uM” value: -3.6% for the first, 23.8% for the second.

First: CCOC(=O)c1oc2ccc3c(c2c1C)C(=O)CC1(CCN(C(=O)OCC)CC1)O3
Second: CCOC(=O)c1[nH]c(=O)[nH]c1CN(Cc1ccco1)Cc1[nH]c(=O)[nH]c1C(=O)OCC
The “hERG current change (%, negative = inhibition) at 10uM” value of the first is lower: -1.98% for the first, 8.37% for the second.

Compared with Cc1cc(NS(=O)(=O)N(C)C)ccc1C(C)C, COC(=O)CN(c1ccc(Cl)cc1C)S(C)(=O)=O is higher in “hERG current change (%, negative = inhibition) at 10uM” value: 10.5% for the first, 13.9% for the second.

Compared with COc1cc(CN2CCc3ccc(NC(=O)CCc4ccccc4OC)cc3C2)ccc1O, COc1ccc(CN2CCNC(=O)C2CC(=O)NCCc2c[nH]c3ccccc23)c(OC)c1 (stereo not shown) is higher in “hERG current change (%, negative = inhibition) at 10uM” value: -37.3% for the first, 38.5% for the second.

First: NC1=NC(c2ccc(F)cc2)n2c(nc3ccccc32)N1 (stereo not shown)
Second: Cn1cnc2cc(NCc3ccc(Cl)cc3)ccc21
The “hERG current change (%, negative = inhibition) at 10uM” value of the first is higher: 7.14% for the first, -18.3% for the second.

Going from COCC(C)NC(=O)c1cc(OC)cc(OC)c1 (stereo not shown) to COc1cc(OC)cc(C(=O)N2CCN(c3ccccn3)CC2)c1, the “hERG current change (%, negative = inhibition) at 10uM” value falls from 7.71% to -1.01%.

First: Cc1ccc(NC(=O)CSc2nnc(CSc3nc(C)cc(C)n3)n2Cc2ccco2)c(C)c1
Second: Cc1ccc(C)c(N(CC(=O)NC2CCCC2)C(=O)c2cc3cc4cc(C)ccc4nc3s2)c1
The “hERG current change (%, negative = inhibition) at 10uM” value of the first is lower: -39.5% for the first, 1.54% for the second.

First: CC(C)CN1C(=O)C(=O)N(CC(=O)N2CCN(c3ccccc3)CC2)C1=O
Second: O=C(CN1CCc2[nH]c3ccccc3c2C1)N1CCCCC1
The “hERG current change (%, negative = inhibition) at 10uM” value of the first is lower: -11.8% for the first, 0.176% for the second.

First: Cc1cc(C(=O)Nc2cc(C)n(Cc3ccc(Cl)cc3)n2)no1
Second: CN(C)S(=O)(=O)c1ccc2c(c1)nc(CCC(=O)NCCc1ccc(Cl)cc1)n2C
The “hERG current change (%, negative = inhibition) at 10uM” value of the first is higher: -40.2% for the first, -41% for the second.

First: Cc1ccccc1-n1c(SCC(=O)N2CCC(C(=O)O)CC2)nnc1-c1ccncc1
Second: Cc1cc(/C=N/NC(=O)c2ccncc2)c(C)n1-c1ccccc1
The “hERG current change (%, negative = inhibition) at 10uM” value of the first is higher: 32.7% for the first, 19.8% for the second.

First: COCCNC(=O)Cn1cc2c(n1)CCCCC2
Second: Cc1ccc(NC(=O)COc2ccc3c(c2)CCC3)nc1
The “hERG current change (%, negative = inhibition) at 10uM” value of the first is lower: 6.91% for the first, 11.1% for the second.

Compared with CCOC(=O)c1c(N)c2cc([N+](=O)[O-])cnc2n1C, CCOC(=O)c1sc2nc(N3CCOCC3)c3c(c2c1N)CC(C)(C)N(C)C3 is lower in “hERG current change (%, negative = inhibition) at 10uM” value: 17.3% for the first, 2.29% for the second.

First: CC(=O)N1c2ccc(S(=O)(=O)NCC3CCC(C(=O)NCc4ccc(C)cc4)CC3)cc2CC1C (stereo not shown)
Second: O=C(CCNS(=O)(=O)c1ccc(Br)cc1)NCc1ccco1
The “hERG current change (%, negative = inhibition) at 10uM” value of the first is higher: -0.179% for the first, -22.8% for the second.

Compared with Cc1cc(C)cc(Oc2nc3ccccn3c(=O)c2/C=C(\C#N)C(=O)NC2CCS(=O)(=O)C2)c1 (stereo not shown), COc1cc(NC(=O)c2cc3ccccc3o2)c(OC)cc1Cl is higher in “hERG current change (%, negative = inhibition) at 10uM” value: -4.95% for the first, 16.3% for the second.

First: O=C(NCc1ccc2c(c1)OCO2)c1ccc(CS(=O)Cc2cccc(Cl)c2)o1 (stereo not shown)
Second: O=C(O)CCC(=O)NCc1c(Cl)cccc1Sc1ccc(Cl)cc1
The “hERG current change (%, negative = inhibition) at 10uM” value of the first is lower: -23.6% for the first, 11% for the second.

First: CC1C/C(=N\NC(=O)CCc2ccc(S(=O)(=O)N3CCOCC3)cc2)CC(C)(C)C1 (stereo not shown)
Second: Cn1nccc1C(=O)Nc1cccc(S(=O)(=O)N2CCOCC2)c1
The “hERG current change (%, negative = inhibition) at 10uM” value of the first is higher: 8.88% for the first, 6.58% for the second.

Compared with COc1ccc(-c2nc(CS(=O)CC(=O)NC(C)CCc3ccccc3)c(C)o2)cc1OC (stereo not shown), COc1ccc(CC(=O)NNC(=O)c2cccs2)cc1OC is higher in “hERG current change (%, negative = inhibition) at 10uM” value: -16.8% for the first, 2.59% for the second.

First: O=C(c1ccccc1Cl)N1CCSCC1
Second: O=C(c1cc2c(s1)-c1ccccc1S(=O)(=O)C2)N1CCCC1
The “hERG current change (%, negative = inhibition) at 10uM” value of the first is higher: 13.9% for the first, -18.1% for the second.

First: CCOC(=O)N1CCN(c2ccc3nnnn3n2)CC1
Second: CC(=O)c1cc(F)c(N2CCN(C(=O)C(C)(C)C)CC2)cc1C
The “hERG current change (%, negative = inhibition) at 10uM” value of the first is lower: -18.1% for the first, -3.1% for the second.

Going from O=C(Nc1cccc(-c2ccc(N3CCOCC3)nn2)c1)c1ccccc1 to O=C(Nc1cccc(S(=O)(=O)N2CCOCC2)c1)c1ccc2ccccc2n1, the “hERG current change (%, negative = inhibition) at 10uM” value rises from -30.8% to -1.59%.

Going from COc1cc(OC)c2ccc(=O)oc2c1C(CCN1CCCC1)c1ccc(N(C)C)cc1 (stereo not shown) to COc1cccc(C2OC(=O)c3ccccc3N2C(C)=O)c1OC(C)=O (stereo not shown), the “hERG current change (%, negative = inhibition) at 10uM” value rises from -24.1% to 10.2%.

First: COc1ccccc1CNC(=O)c1cc2c(=O)[nH]c3ccccc3c2n1C
Second: CCCn1c(N)c(N(CCOC)C(=O)c2ccc(F)cc2)c(=O)[nH]c1=O
The “hERG current change (%, negative = inhibition) at 10uM” value of the first is lower: 12.3% for the first, 13.1% for the second.

First: CC(C)c1ccccc1NC(=O)COC(=O)c1cc(=O)[nH]c(=O)[nH]1
Second: CC(=NC(C)c1ccccc1)c1c(O)[nH]c(=O)[nH]c1=O (stereo not shown)
The “hERG current change (%, negative = inhibition) at 10uM” value of the first is higher: 13.2% for the first, 5.61% for the second.

Going from COC(=O)C1=C(C)Nc2[nH]c(=S)[nH]c(=O)c2C1c1ccc(OC)cc1 (stereo not shown) to COc1ccc(C2CC(C)(c3ccc(OC)cc3OC)Nc3ccccc3N2)c(OC)c1 (stereo not shown), the “hERG current change (%, negative = inhibition) at 10uM” value falls from 26.8% to -10.4%.

Compared with C=CCNc1nc(NCc2ccccc2)c(C#N)c2c1CN(C)CC2, COCCCNc1nc2ccccc2nc1NS(=O)(=O)c1cccc(C)c1 is higher in “hERG current change (%, negative = inhibition) at 10uM” value: -68.1% for the first, 13.3% for the second.

Going from O=C(O)c1nn(-c2cccc(Cl)c2)c(=O)cc1O to COc1ccc(/C=C/C(=O)O)cc1S(=O)(=O)N1CCc2ccccc21, the “hERG current change (%, negative = inhibition) at 10uM” value rises from 4.44% to 8.17%.

Compared with CC(CCc1ccc(O)cc1)NCc1ccc(Br)cc1 (stereo not shown), C/C(=N\NC(=O)C(O)c1ccccc1)c1ccc(Cl)cc1 (stereo not shown) is higher in “hERG current change (%, negative = inhibition) at 10uM” value: -76.2% for the first, 22.4% for the second.

First: CC(C)c1ccc(NC(=O)CSc2n[nH]c(=O)n2C2CC2)cc1
Second: Nc1c(C(=O)CSc2ccccn2)c(=O)[nH]c(=O)n1C1CC1
The “hERG current change (%, negative = inhibition) at 10uM” value of the first is lower: -4.38% for the first, -0.178% for the second.

Compared with COc1ccc(S(=O)(=O)N2CCN(C(=O)c3ccco3)CC2)cc1OC, COc1cccc(N(CC(=O)N2CCOCC2)S(C)(=O)=O)c1 is higher in “hERG current change (%, negative = inhibition) at 10uM” value: -3.33% for the first, 22.9% for the second.

First: CCC(OC(=O)c1nsc(Cl)c1Cl)C(=O)NCc1ccco1 (stereo not shown)
Second: Cc1c(Cl)c([N+](=O)[O-])nn1CCCC(=O)Nc1cccnc1
The “hERG current change (%, negative = inhibition) at 10uM” value of the first is higher: 10.4% for the first, -2.96% for the second.

Going from N#Cc1c(N(CCO)CCO)nc(N)c2c(N)nc3c(c12)CC(=O)N3CC1CCCO1 (stereo not shown) to CCCCNC(=O)c1cc2c(=O)n3cccc(C)c3nc2n(CCN2CCOCC2)c1=N, the “hERG current change (%, negative = inhibition) at 10uM” value falls from 10% to -86%.

First: COc1cccc(/C=N/n2nnnc2N)c1O
Second: Cc1ncc(CO)c(/C=N/NC(=O)c2cc(Br)ccc2O)c1O
The “hERG current change (%, negative = inhibition) at 10uM” value of the first is higher: 5.64% for the first, 3.52% for the second.

Compared with Cl.O=C(NCCCN1CCOCC1)c1cn(-c2ccccc2)nc1-c1cccs1, O=C(CCC1CCCC1)Nc1ccccc1-c1ccccc1 is higher in “hERG current change (%, negative = inhibition) at 10uM” value: -39.9% for the first, 2.88% for the second.

Going from CN(C)C(=O)C12CCC(C)(c3nc4ccccc4nc31)C2(C)C (stereo not shown) to Cc1nc2ccccc2c2c1CC(C)S2 (stereo not shown), the “hERG current change (%, negative = inhibition) at 10uM” value falls from 8.51% to -16.8%.

First: Cc1cc(C)c(C)c(S(=O)(=O)N2C(=S)NC(=O)C2CC(C)C)c1C (stereo not shown)
Second: Cc1nn(C)c(C)c1P(=S)(c1c(C)nn(C)c1C)N(C)C
The “hERG current change (%, negative = inhibition) at 10uM” value of the first is higher: 12.9% for the first, -6.71% for the second.

Going from O=C(O)CCC(=O)Nc1ccccc1C(=O)Nc1ccccc1 to O=C1c2ccccc2S(=O)(=O)N1CC(O)Cn1ccc2ccccc21 (stereo not shown), the “hERG current change (%, negative = inhibition) at 10uM” value falls from 15.6% to -6.66%.

Compared with CS(=O)(=O)c1ccc(C(=O)OCc2nnc(-c3ccc(Cl)cc3)o2)cc1[N+](=O)[O-], NC(=O)c1ccc(SCC(=O)OCC(=O)N2CCCCC2)c([N+](=O)[O-])c1 is lower in “hERG current change (%, negative = inhibition) at 10uM” value: 11.7% for the first, -1.55% for the second.

Compared with CC1CN(C(=S)SCCN2Cc3ccccc3C2=O)CC(C)O1 (stereo not shown), N#C/C=C1/NC(=O)c2ccccc2S1 is higher in “hERG current change (%, negative = inhibition) at 10uM” value: -6.85% for the first, 3.78% for the second.

First: O=C(N/N=C/c1cc(Br)c(Br)o1)c1cc2ccccc2o1
Second: O=C(Oc1coc(CSc2ncccn2)cc1=O)c1cccs1
The “hERG current change (%, negative = inhibition) at 10uM” value of the first is higher: 12.9% for the first, -7.2% for the second.

First: CC1CCC(C(=O)NC(C(=O)N2CCC3(CC2)OCCO3)C(C)C)CC1 (stereo not shown)
Second: C[C@H](CCC(=O)NCC(=O)O)[C@H]1CC[C@H]2[C@@H]3[C@H](O)C[C@@H]4C[C@H](O)CC[C@]4(C)[C@H]3C[C@H](O)[C@]12C.O
The “hERG current change (%, negative = inhibition) at 10uM” value of the first is lower: -7.36% for the first, 11.3% for the second.

First: O=C1CC(C(=O)N(CC2CCCO2)C(C(=O)NC2CCCCC2)c2ccncc2)CS1 (stereo not shown)
Second: CCN1CCN(c2cc(-c3ccccc3)nc3cc(-c4cccc(F)c4)nn23)CC1
The “hERG current change (%, negative = inhibition) at 10uM” value of the first is lower: -1.73% for the first, 0.257% for the second.
